This is an account of results in paper PMC2686680, “Chibby forms a homodimer through a heptad repeat of leucine residues in its C-terminal coiled-coil motif” (BMC Molecular Biology, 2009).

Amino acid sequences for entries named in this document (tags omitted).
UniProt P01100: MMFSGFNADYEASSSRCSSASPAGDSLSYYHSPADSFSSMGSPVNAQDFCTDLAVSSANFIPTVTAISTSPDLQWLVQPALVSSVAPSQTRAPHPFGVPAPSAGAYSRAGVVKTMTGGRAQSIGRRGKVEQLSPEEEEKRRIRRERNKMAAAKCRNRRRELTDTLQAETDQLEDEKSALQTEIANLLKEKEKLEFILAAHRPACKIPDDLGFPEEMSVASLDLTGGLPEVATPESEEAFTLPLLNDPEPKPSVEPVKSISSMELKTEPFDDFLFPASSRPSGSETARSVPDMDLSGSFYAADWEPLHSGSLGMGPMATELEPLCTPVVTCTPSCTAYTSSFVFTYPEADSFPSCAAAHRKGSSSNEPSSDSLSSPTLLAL
UniProt O00629: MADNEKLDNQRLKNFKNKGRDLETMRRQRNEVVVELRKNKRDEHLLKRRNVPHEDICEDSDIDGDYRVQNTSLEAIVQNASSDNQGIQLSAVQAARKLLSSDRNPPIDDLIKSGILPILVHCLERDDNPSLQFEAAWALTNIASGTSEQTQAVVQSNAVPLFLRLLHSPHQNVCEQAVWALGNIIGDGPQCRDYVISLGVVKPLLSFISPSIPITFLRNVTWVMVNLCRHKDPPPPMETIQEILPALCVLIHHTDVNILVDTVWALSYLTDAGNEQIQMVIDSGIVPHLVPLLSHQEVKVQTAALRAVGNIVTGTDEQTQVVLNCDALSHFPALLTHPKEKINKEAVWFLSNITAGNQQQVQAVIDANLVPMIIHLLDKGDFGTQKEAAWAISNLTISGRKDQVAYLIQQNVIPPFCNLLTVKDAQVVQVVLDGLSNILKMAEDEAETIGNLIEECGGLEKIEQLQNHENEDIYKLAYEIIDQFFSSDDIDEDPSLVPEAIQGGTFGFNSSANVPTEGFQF
UniProt P05412: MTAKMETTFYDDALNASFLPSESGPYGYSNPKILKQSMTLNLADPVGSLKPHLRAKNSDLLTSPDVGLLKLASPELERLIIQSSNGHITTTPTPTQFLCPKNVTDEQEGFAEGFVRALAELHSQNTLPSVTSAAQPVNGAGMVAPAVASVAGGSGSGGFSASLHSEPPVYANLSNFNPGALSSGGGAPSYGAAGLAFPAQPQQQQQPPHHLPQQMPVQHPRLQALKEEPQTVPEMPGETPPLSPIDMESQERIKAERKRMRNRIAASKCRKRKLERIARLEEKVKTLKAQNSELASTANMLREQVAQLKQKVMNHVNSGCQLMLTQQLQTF

Results are given in words; binding and its absence hold for the method and conditions named. For part of these data: In cells and extracts the contact can be indirect. Some results given as binding are weak or reduced against the parent protein; the word gives no strength.

Test [1] concerns the target Cby L84A/L98A fused to RN or RC of hRluc (human) (UniProt Q9Y3M2). As to the kind of experiment: split reporter; split synthetic Renilla luciferase (hRluc) protein-fragment-assisted complementation; RN and RC fusion plasmids (400 ng each) in HEK293T, Rluc activity measured 24 hr post-transfection (Dual Luciferase Reporter Assay System), normalised to firefly luciferase. A general note: A reporter such as luciferase makes a cellular process visible.

The target of test [2] is Cby L77A/L84A fused to RN or RC of hRluc (human) (UniProt Q9Y3M2). Described as above.
The target of a further test is His-Cby4A (human) (UniProt Q9Y3M2). As to the kind of experiment: cross-linking; purified His-Cby, 0.2% glutaraldehyde at 37°C for 5 or 20 min in 20 mM Hepes pH 7.9, 100 mM NaCl, 1 mM EDTA, 0.1% NP-40, 10% glycerol; SDS-PAGE, anti-Cby blot; both purified.
For test [3], the target named is Chibby (Cby) wild type, epitope-tagged (Flag-CbyWT, Myc-Cby, HA-CbyWT) (human) (UniProt Q9Y3M2). As to the kind of experiment: co-IP; HEK293T co-transfected with two differently tagged Cby constructs; lysis buffer 20 mM Tris-HCl pH 8.0, 135 mM NaCl, 1.5 mM MgCl2, 1 mM EGTA, 1% Triton X-100, 10% glycerol; IP with anti-Myc (Fig. 1A) or anti-HA (Fig. 4B), blot with anti-Flag.

The target of test [4] is Cby L77A/L91A fused to RN or RC of hRluc (human) (UniProt Q9Y3M2). Kind of test: split reporter; split synthetic Renilla luciferase (hRluc) protein-fragment-assisted complementation; RN and RC fusion plasmids (400 ng each) in HEK293T, Rluc activity measured 24 hr post-transfection (Dual Luciferase Reporter Assay System), normalised to firefly luciferase.
Test [5] has as its target Cby L91A/L98A fused to RN or RC of hRluc (human) (UniProt Q9Y3M2). Described as above.
Test [6] deals with Chibby (Cby) wild type, epitope-tagged (Flag-CbyWT, Myc-Cby, HA-CbyWT) (human) (UniProt Q9Y3M2). Kind of test: co-IP; HEK293T co-transfected with Flag-Cby and HA-Cby; IP with anti-HA; immunoprecipitates washed three times with 0.135, 0.5, 1.0, 1.5 or 2.0 M NaCl, or 0.5, 1.0, 1.5 or 2.0 M urea (with 0.135 M NaCl); blot with anti-Flag.
The target in the next test is MBP-Cby L91A (human) (UniProt Q9Y3M2). Kind of test: pull-down; in vitro: bacterially produced MBP-Cby proteins incubated with His-βcatR10-C or GST-importin-α3, pulled down with amylose resin, Western blot with anti-β-catenin or anti-GST; both purified. (In western blotting, separated proteins are transferred to a membrane and probed.)
Another test concerns the target MBP-CbyWT (human) (UniProt Q9Y3M2). The description is as above.
In another test the target is MBP-Cby L77A (human) (UniProt Q9Y3M2). The test is described as above.
Test [7] concerns the target Cby wild type fused to the N-terminal (RN) or C-terminal (RC) portion of synthetic Renilla luciferase (hRluc) (human) (UniProt Q9Y3M2). As to the kind of experiment: split reporter; split hRluc complementation in live HEK293T cells in 96-well plates; cell-permeable ViviRen substrate added to the medium 24 hr post-transfection.
For test [8], the target named is Cby4A fused to RN or RC of hRluc (human) (UniProt Q9Y3M2). Kind of test: split reporter; split synthetic Renilla luciferase (hRluc) protein-fragment-assisted complementation; RN and RC fusion plasmids (400 ng each) in HEK293T, Rluc activity measured 24 hr post-transfection (Dual Luciferase Reporter Assay System), normalised to firefly luciferase.
Test [9] has as its target Cby L77A/L98A fused to RN or RC of hRluc (human) (UniProt Q9Y3M2). The description is as above.
In a further test the target is His-CbyL77A/L91A (human) (UniProt Q9Y3M2). As to the kind of experiment: cross-linking; purified His-Cby, 0.2% glutaraldehyde at 37°C for 5 or 20 min in 20 mM Hepes pH 7.9, 100 mM NaCl, 1 mM EDTA, 0.1% NP-40, 10% glycerol; SDS-PAGE, anti-Cby blot; both purified.
For test [10], the target named is Fos fused to the C-terminal portion of hRluc (UniProt P01100). As to the kind of experiment: split reporter; split hRluc complementation in live HEK293T cells in 96-well plates; cell-permeable ViviRen substrate added to the medium 24 hr post-transfection.
Test [11] concerns the target Cby wild type fused to the N-terminal (RN) or C-terminal (RC) portion of synthetic Renilla luciferase (hRluc) (human) (UniProt Q9Y3M2). Kind of test: split reporter; split synthetic Renilla luciferase (hRluc) protein-fragment-assisted complementation; RN and RC fusion plasmids (400 ng each) in HEK293T, Rluc activity measured 24 hr post-transfection (Dual Luciferase Reporter Assay System), normalised to firefly luciferase.

The target in test [12] is Cby L84A fused to RN or RC of hRluc (human) (UniProt Q9Y3M2). Described as above.
For test [13], the target named is Cby L98A fused to RN or RC of hRluc (human) (UniProt Q9Y3M2). Described as above.
Test [14] addresses Cby L77A fused to RN or RC of hRluc (human) (UniProt Q9Y3M2). Described as above.
The target in test [15] is Cby L84A/L91A fused to RN or RC of hRluc (human) (UniProt Q9Y3M2). The description is as above.
The target of test [16] is Cby L91A fused to RN or RC of hRluc (human) (UniProt Q9Y3M2). Described as above.
Test [17] has as its target His-tagged Cby wild type (human) (UniProt Q9Y3M2). As to the kind of experiment: SEC; as a5 but buffer with 0.5 M NaCl (data not shown); both purified.
Test [18] shares this target. Kind of test: cross-linking; purified His-Cby, dimethyl suberimidate (DMS) 2 mg/ml at room temperature for 30 min in the dialysis buffer; SDS-PAGE, anti-Cby blot; both purified.

With “Cby L84A/L98A fused to RN or RC of hRluc (from UniProt Q9Y3M2 1-126)”, the binding entry in [1] was “no binding”.

Take “Cby L77A/L84A fused to RN or RC of hRluc (from UniProt Q9Y3M2 1-126)”: the binding entry in [2] was “no binding”.

As for His-Cby4A (from UniProt Q9Y3M2 1-126), in the test with His-Cby4A (human), the binding entry was “no binding”.

“Flag-Cby L84A/L98A (from UniProt Q9Y3M2 1-126)”: the binding result in [3] is on record as “no binding”.

Consider “Cby L77A/L91A fused to RN or RC of hRluc (from UniProt Q9Y3M2 1-126)”, for which the binding result in [4] is given as “no binding”.

Turning to “Flag-Cby L98A (from UniProt Q9Y3M2 1-126)”, in test [3], the binding entry is on record as “binds”.

As to “Flag-Cby L84A/L91A/L98A (from UniProt Q9Y3M2 1-126)”, the binding result in [3] is recorded as “no binding”.

On to Flag-Cby4A (from UniProt Q9Y3M2 1-126), for which the binding result in test [3] is “no binding”.

In the case of “Cby L91A/L98A fused to RN or RC of hRluc (from UniProt Q9Y3M2 1-126)”, the binding entry in test [5] is on record as “no binding”.

As for “Chibby (Cby) wild type, epitope-tagged (Flag-CbyWT, Myc-Cby, HA-CbyWT) (from UniProt Q9Y3M2 1-126)”, the binding entry in test [3] and in test [6] was “binds” throughout.

Consider “GST-importin-α3 (from UniProt O00629 1-521)”, for which the binding entry in the test with MBP-Cby L91A (human), with MBP-CbyWT (human) and with MBP-Cby L77A (human) was “binds” in each case.

For the molecule “Flag-Cby L77A/L84A (from UniProt Q9Y3M2 1-126)”, the binding result in test [3] was “no binding”.

For the molecule “Flag-CbyL91A (from UniProt Q9Y3M2 1-126)”, the binding entry in test [3] is reported as “binds”.

Turning to “Flag-Cby L77A/L84A/L91A (from UniProt Q9Y3M2 1-126)”, the binding result in test [3] is recorded as “no binding”.

With “Jun fused to the N-terminal portion of hRluc (from UniProt P05412 1-331)”, the binding result in [7] is “no binding”.

For the molecule “Flag-Cby L77A/L98A (from UniProt Q9Y3M2 1-126)”, the binding entry in [3] is reported as “no binding”.

With “Cby4A fused to RN or RC of hRluc (from UniProt Q9Y3M2 1-126)”, the binding result in [8] is listed as “no binding”.

Turning to “Cby L77A/L98A fused to RN or RC of hRluc (from UniProt Q9Y3M2 1-126)”, the binding entry in [9] is recorded as “no binding”.

With “His-CbyL77A/L91A (from UniProt Q9Y3M2 1-126)”, in the test with His-CbyL77A/L91A (human), the binding entry is “no binding”.

“Flag-Cby L84A/L91A (from UniProt Q9Y3M2 1-126)”: the binding result in test [3] was “no binding”.

Turning to “Cby wild type fused to the N-terminal (RN) or C-terminal (RC) portion of synthetic Renilla luciferase (hRluc) (from UniProt Q9Y3M2 1-126)”, the binding result in test [10] is reported as “no binding”; in [7], “binds”; in test [11] it was “binds”.

For “Cby L84A fused to RN or RC of hRluc (from UniProt Q9Y3M2 1-126)”, the binding entry in test [12] was “binds”.

With “Cby L98A fused to RN or RC of hRluc (from UniProt Q9Y3M2 1-126)”, the binding result in test [13] is “binds”.

In the case of “Flag-Cby L77A/L91A/L98A (from UniProt Q9Y3M2 1-126)”, in [3], the binding result was “no binding”.

Consider “Flag-Cby L91A/L98A (from UniProt Q9Y3M2 1-126)”, for which the binding entry in test [3] is “no binding”.

“Cby L77A fused to RN or RC of hRluc (from UniProt Q9Y3M2 1-126)”: in test [14], the binding result was “binds”.

As to “Flag-CbyL77A/L91A (from UniProt Q9Y3M2 1-126)”, the binding result in [3] is recorded as “no binding”.

As for “Flag-CbyL84A (from UniProt Q9Y3M2 1-126)”, in test [3], the binding entry is listed as “binds”.

Turning to “Cby L84A/L91A fused to RN or RC of hRluc (from UniProt Q9Y3M2 1-126)”, in test [15], the binding entry is reported as “no binding”.

For the molecule “Flag-CbyL77A (from UniProt Q9Y3M2 1-126)”, the binding entry in test [3] is “binds”.

For the molecule “Cby L91A fused to RN or RC of hRluc (from UniProt Q9Y3M2 1-126)”, the binding entry in test [16] is listed as “binds”.

“Flag-Cby L77A/L84A/L98A (from UniProt Q9Y3M2 1-126)”: in test [3], the binding entry is given as “no binding”.

B1: His-tagged Cby wild type (natural protein, human, UniProt Q9Y3M2 1-126, looked up)
chain: MPFFGNTFSPKKTPPRKSASLSNLHSLDRSTREVELGLEYGSPTMNLAGQSLKFENGQWIAETGVSGGVDRREVQRLRRRNQQLEEENNLLRLKVDILLDMLSESTAESHLMEKELDELRISRKRK
notes: Chibby (Cby), human, 126 amino acids; Cby cDNA in pcDNA4/HisMax A; the vector pcDNA4/HisMax A probably adds further N-terminal residues besides the His tag (surmise); also called His-Cby; His-CbyWT; source: transiently transfected for cross-linking), purified (nickel beads / Ni-NTA)
In the case of B1, the binding result in [17] and in test [18] was “binds” throughout.
